In paper PMC4336329 (PLoS ONE, 2015):
About 2,200 (0.71%) of roughly 310,000 compounds showed an effect of 50% or more. Effects have a minus sign here. The list shows a part of the results.

Molecular target: human ether-à-go-go-related gene (hERG) potassium channel (human, UniProt Q12809)
Assay: primary screen, population patch clamp on CHO cells stably expressing hERG

Chain of human ether-à-go-go-related gene (hERG) potassium channel (Q12809 whole entry, looked up): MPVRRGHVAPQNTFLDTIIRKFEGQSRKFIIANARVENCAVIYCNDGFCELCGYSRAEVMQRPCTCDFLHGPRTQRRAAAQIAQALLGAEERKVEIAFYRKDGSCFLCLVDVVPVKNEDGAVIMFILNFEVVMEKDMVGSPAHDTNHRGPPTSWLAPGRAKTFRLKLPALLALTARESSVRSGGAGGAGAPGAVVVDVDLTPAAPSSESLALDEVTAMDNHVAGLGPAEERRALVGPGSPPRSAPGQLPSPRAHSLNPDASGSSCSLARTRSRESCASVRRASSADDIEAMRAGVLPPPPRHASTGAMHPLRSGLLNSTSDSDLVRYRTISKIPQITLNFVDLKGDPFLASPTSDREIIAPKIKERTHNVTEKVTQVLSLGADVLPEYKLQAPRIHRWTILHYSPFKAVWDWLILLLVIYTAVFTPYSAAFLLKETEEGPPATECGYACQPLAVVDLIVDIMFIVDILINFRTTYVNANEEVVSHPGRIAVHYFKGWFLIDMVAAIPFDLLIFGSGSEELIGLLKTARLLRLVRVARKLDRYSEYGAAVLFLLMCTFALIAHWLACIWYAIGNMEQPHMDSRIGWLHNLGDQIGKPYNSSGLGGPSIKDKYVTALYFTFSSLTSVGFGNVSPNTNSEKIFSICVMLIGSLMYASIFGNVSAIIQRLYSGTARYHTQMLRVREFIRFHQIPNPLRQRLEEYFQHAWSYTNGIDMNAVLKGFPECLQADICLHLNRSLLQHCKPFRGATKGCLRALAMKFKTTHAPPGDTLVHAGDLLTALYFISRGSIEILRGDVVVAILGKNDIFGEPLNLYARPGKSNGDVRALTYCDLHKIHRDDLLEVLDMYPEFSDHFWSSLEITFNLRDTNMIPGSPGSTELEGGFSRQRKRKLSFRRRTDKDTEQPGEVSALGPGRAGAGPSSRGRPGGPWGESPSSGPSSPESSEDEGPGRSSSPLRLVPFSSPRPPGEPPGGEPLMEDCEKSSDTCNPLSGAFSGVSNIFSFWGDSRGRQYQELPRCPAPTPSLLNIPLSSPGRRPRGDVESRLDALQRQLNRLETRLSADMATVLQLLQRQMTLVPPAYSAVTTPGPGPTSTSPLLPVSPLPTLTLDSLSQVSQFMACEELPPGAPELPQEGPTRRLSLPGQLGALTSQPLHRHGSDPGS

| SMILES | hERG current change (%, negative = inhibition) at 1uM [%] |
| --- | --- |
| Cc1noc(NS(=O)(=O)c2ccc(NC(=O)C34CCC(CC3)C4)cc2)c1C | -5.04 |
| COc1ccccc1NC(=O)c1nc[nH]c1C(=O)Nc1ccccc1OC | 22.2 |
| C=C1N(C)c2cc([N+](=O)[O-])c(N)cc2C1(C)C | -7.6 |
| CCSc1nnc(NC(=O)CCc2ccc(OC)cc2)s1 | 12.6 |
| CCC(=O)Nc1ccc(C(=O)Nc2cccc(OC)c2)cc1 | 4.71 |
| Cc1cccc(N(C)c2cc(C)nc3ncnn23)c1 | 8.88 |
| CCOc1ccccc1NC(=O)c1cc2ccccc2oc1=O | 19.1 |
| O=C(CCS(=O)(=O)c1ccc(Br)cc1)Nc1ccccn1 | 15.2 |
| Cc1ccc(C(=O)N2CCC3(CC2)Oc2ccc(F)cc2C(=O)C32CC(c3ccccc3)=NO2)s1 (stereo not drawn) | 20.3 |
| O=C(NCC1CCN(c2ccc(S(=O)(=O)N3CCOCC3)cc2)CC1)Nc1ccccc1F | 8.44 |
| O=C(c1ccccc1)c1ccccc1C(=O)c1ccccc1 | 11.9 |
| COc1ccc(OCC(=O)Nc2c3c(nn2-c2ccccc2)CS(=O)(=O)C3)cc1 | 7.69 |
| COc1ccc(C)cc1S(=O)(=O)Nc1cccc(-c2cn3cccnc3n2)c1 | 16.9 |
| Cc1nn(C)cc1C(=O)Nc1c(C)nn(Cc2ccccc2Cl)c1C | 12.4 |
| CC(C)C1C(C#N)=C(N)Oc2n[nH]c(-c3cccs3)c21 (stereo not drawn) | 10 |
| O=c1c([N+](=O)[O-])c(O)c2cccc3c2n1CCC3 | 6.23 |
| COc1cccc(C(=O)Nc2cc3c4c(c2)CC(=O)N4CCC3)c1 | 12.5 |
| NC(=O)COc1ccc2c3c(c(=O)oc2c1)CCCCC3 | 8.39 |
| CCOC(=O)Cn1c(=O)oc2cc(S(=O)(=O)Nc3cc(OCC)ccc3OCC)ccc21 | -26.3 |
| CSCCC(NC(=O)CCC(=O)OCC(=O)[C@@]1(O)CCC2[C@@H]3CCC4=CC(=O)C=C[C@]4(C)C3[C@@H](O)C[C@@]21C)C(=O)O (stereo partly drawn) | 11.2 |
| O=C(c1ccc([N+](=O)[O-])s1)N1CCN(c2ccccc2)CC1 | -2.79 |
| COc1c(C)cc(Br)cc1C(=O)O | 6.87 |
| O=C(Cc1ccccc1Cl)Nc1cccc(S(=O)(=O)N2CCCCCC2)c1 | 10.2 |

| SMILES | hERG current change (%, negative = inhibition) at 1uM [%] |
| --- | --- |
| C[C@@H]1C=C(C(=O)O)O[C@H](OCc2ccc(CO)cc2)C1 | 1.51 |
| N/C(Cn1cncn1)=N\NC(=O)c1ccc(Cl)cc1Cl | 12.1 |
| Cc1cccc(N=Cc2c(O)n(-c3ccccc3C)c(=O)[nH]c2=O)c1 | 12.1 |
| CC(=O)N1c2ccccc2[C@H](C)[C@H]1C | 3.73 |
| Cc1cc(C(=O)NCC(c2ccco2)N2CCCC2)c2ccccc2n1 (stereo not drawn) | 2.56 |
| NS(=O)(=O)c1ccc(CCNC(=O)c2coc3ccccc3c2=O)cc1 | 14.4 |
| Cc1noc(C)c1S(=O)(=O)N1CCC(C(=O)N(C)Cc2ccccc2)CC1 | -0.487 |
| O=C(NCCCn1ccnc1)Nc1ccc(Cl)cc1 | 2.55 |
| CC(C)Oc1cc(O)c2c(=O)c(-c3ccc(O)cc3)coc2c1 | 12.5 |
| Cc1[nH]c(=S)c(C#N)c(C)c1Cc1ccc(Cl)cc1Cl | 5.41 |
| CC(C)(C)C1CCc2c(sc(NC(=O)c3cccs3)c2C(N)=O)C1 (stereo not drawn) | 10 |
| N#CC(NC(=O)OCc1ccccc1)c1ccccc1 (stereo not drawn) | 8.92 |
| OCC[C@H]1C[C@H](O)[C@@H](O)[C@@]2(CCc3ccccc3O2)O1 | -8.9 |
| COc1ccc(NC(C)=O)cc1NC(=O)CSc1nnc(-c2ccc(F)cc2)n1N | 4.09 |
| CC1CCCC(C)N1C(=O)COC(=O)Cc1ccc(Cl)cc1 (stereo not drawn) | 13.7 |
| Cc1ccc(NC(=O)Nc2ccc3c(c2)CCC3)cc1C | -17.6 |
| COc1ccc(C2CC(O)(c3ccccc3)Oc3cc(OC)c(OC)c(OC)c32)cc1 (stereo not drawn) | 14.4 |
| Cc1ccc2cccc(NS(=O)(=O)c3ccccc3)c2n1 | 5.63 |
| COc1cccc(NS(=O)(=O)c2ccc(C)c(C(=O)N3CCCCC3)c2)c1 | 9.36 |
| Cc1ccc(CN2CCN(Cc3nc4c(s3)CCCC4)CC2CCO)cc1 (stereo not drawn) | -24.9 |
| CC(C)NC(=O)COc1ccc(Cl)cc1Cl | 6.86 |
| Cc1c2cnn(CC(=O)N3CCC4(CC3)OCCO4)c(=O)c2c(C)n1Cc1ccccc1F | 14.7 |
| O=C1CCCCCN1Sc1ccccc1 | 10.5 |

| SMILES | hERG current change (%, negative = inhibition) at 1uM [%] |
| --- | --- |
| O=S(=O)(c1ccc(OCc2nc3ccccc3s2)c(Cl)c1)N1CCOCC1 | 12.2 |
| C[C@]12CC[C@@H]3c4ccc(O)cc4CC[C@H]3[C@@H]1CC[C@@H]2OC(=O)CCC1CCCC1 | 16.2 |
| CC(=O)c1ccc(Nc2ncnc3c2oc2ccccc23)cc1 | 10.2 |
| Cc1cccc(-n2nc3c(c2NC(=O)c2ccco2)CS(=O)(=O)C3)c1C | -6.7 |
| CNC(=O)COc1coc(CN2CCN(c3cccc(Cl)c3)CC2)cc1=O | 6.54 |
| COc1ccc(-n2c(COc3cccc4ccccc34)nnc2SCC(=O)NCc2ccco2)cc1 | -9.36 |
| Cc1cc(C)c(S(=O)(=O)N2CCCCCC2)cc1Br | 9.28 |
| CCn1nnnc1NCc1ccc(N2CCCC2)cc1 | 4.26 |
| CCCC(=O)Nc1cc(=O)n(C)c(=O)n1C | 2.02 |
| CCCCN1C(=N)C(CC)(CC)C(=O)NC1=O.Cl | 27.4 |
| COc1ccc(NC(=O)c2oc3ccccc3c2NC(=O)C2CC2)cc1OC | 7.42 |
| Cc1csc(NC(=O)CSc2nnc(NC(=O)NC(C)(C)C)s2)n1 | 3.92 |
| O=C1c2ccccc2C(=O)N1Cc1nc2ccccc2c(=O)n1-c1ccc(Br)cn1 | -0.56 |
| Br.COc1ccc(-c2cn3cc(Cl)ccc3n2)cc1OC | 8.85 |
| CCN(CC)C(=O)C1CCN(Cc2ccc(OCc3ccccc3)cc2)CC1.O=C(O)C(=O)O | -13.3 |
| Cc1ccc[n+](CC(=O)/C=C2\N(C)c3ccccc3C2(C)C)c1.[Cl-] | 10.4 |
| O=C(NCCCN1CCCC1=O)c1cccc(C(F)(F)F)c1 | 5.99 |
| COC(=O)C1=C(c2ccc(OC)c(OC)c2)C[C@@H]2CC[C@H]1N2C(=O)N1CCCCC1 | 11 |
| CCCCCCC[n+]1ccc(-c2cc[n+](CCCCCCC)cc2)cc1.[I-] | 0.751 |
| Clc1ccc(C2NCCc3sccc32)cc1 (stereo not drawn) | 3.2 |
| O=C(COc1ccc(S(=O)(=O)N2CCOCC2)cc1)N1CCN(Cc2ccc3c(c2)OCO3)CC1 | -1.37 |
| Clc1ccc(C2Nc3cccc4cccc(c34)N2)cc1Cl | 19.6 |
| COc1ccc2[nH]cc(CCN=C3SCC(=O)N3C)c2c1 | 12.1 |

| SMILES | hERG current change (%, negative = inhibition) at 1uM [%] |
| --- | --- |
| COc1cc(/C=C2\CCC(C3CCCC3)C2=O)cc(OC)c1OC (stereo not drawn) | 13.2 |
| O=C(NC(=S)N1CCN(c2ccc([N+](=O)[O-])cc2)CC1)c1ccccc1F | -0.874 |
| FC(F)(F)c1nnc(-c2ccccc2)nc1N1CCCC1 | 14.8 |
| C=CCn1c(=NC(=O)C2COc3ccccc3O2)sc2cccc(OC)c21 (stereo not drawn) | 21.1 |
| COc1cc(CNC(C)c2ccccc2)c(Br)cc1OCC(N)=O (stereo not drawn) | -12.9 |
| O=C(O)C1C2C=CC(C2)C1C(=O)NCc1ccc(Cl)c(Cl)c1 (stereo not drawn) | 1.51 |
| O=C(OCC(=O)N1CCN(C(=O)c2ccco2)CC1)c1cncc(Br)c1 | 6.76 |
| CCOC(=O)C1=C(CN2c3ccccc3CC2C)NC(=O)NC1c1ccccc1 (stereo not drawn) | 5.1 |
| COc1ccc(CCNC(=O)C2CC(c3ccccc3F)=NO2)cc1 (stereo not drawn) | 4.69 |
| COc1ccc(-c2cn3c(C)c(C(=O)Nc4cc(NC(C)=O)ccc4OC)sc3n2)cc1 | 11.1 |
| CC(=O)Nc1nc(N(C)C)nc(N(C)C)n1 | 40 |
| CCOC(=O)C1CCN(c2c(NC3CCCc4ccccc43)c(=O)c2=O)CC1 (stereo not drawn) | -0.516 |
| Clc1ccc(-c2noc(CN3CCCC3)n2)cc1 | 6.91 |
| O=c1[nH]c(Nc2ccc3c(c2)OCCO3)nnc1Cc1ccccc1 | 9.82 |
| CN(C)c1ccc(N=Nc2cccc(F)c2)cc1 | 3.51 |
| COc1ccccc1NC(=O)c1c(NC(=O)c2ccco2)sc2c1CCC2 | 9.16 |
| O=C(CNC(=O)c1ccc(Br)cc1)NCC(=O)OCc1ccc(Cl)cc1 | 5.88 |
| C=CCn1c(SCC(=O)Nc2ccccc2C)nc2sc(C)c(C)c2c1=O | 10.7 |
| COc1cccc(NC(=O)C(c2ccccc2)N2CCN(c3ccccn3)CC2)c1 (stereo not drawn) | 5.91 |
| COc1ccc(-c2nc(CN3CCN(c4ncnc5ccccc45)CC3)c(C)o2)c(OC)c1 | -22.1 |
| Cc1cc(Br)ccc1SCC(=O)N1CCN(S(=O)(=O)c2ccccc2)CC1 | 5.34 |
